Measured values reported in patent US20120316107A1 (CASE WESTERN RESERVE UNIVERSITY, published 2012).

B1: LANTUS (insulin analogue with two arginine residues added to the carboxy-terminal end of the B-chain) (ligand)
chain 1: not shown
chain 2: not shown
B2: corresponding two-chain analogue (His^A8, Asp^B10, Asp^B28, Pro^B29) (ligand)
chain 1: not shown
chain 2: FVNQHLCGSDLVEALYLVCGERGFFYTDPT
notes: Two-chain analogue lacking the linker; also called A8-His, B10-Asp, B28-Asp, B29-Pro ins; two-chain control analog

Tests used:
[1] = biological target: T1, Insulin-like Growth Factor receptor; assay: competitive displacement of 125I-IGF-1 from IGFR
T1 construct: Captured on antibody-coated microtiter plates; the construct is not described; also called IGFR; IGF Type I receptor

[2] = biological target: T1, Insulin-like Growth Factor receptor; assay: competitive displacement of 125I-IGF-1 from IGFR; remark: listed apart in the source
[3] = biological target: B isoform specific human insulin receptor (human); assay: competitive displacement of labelled ligand, receptor captured on anti-FLAG IgG plate, two-site sequential model
[4] = biological target: T2, A isoform specific human insulin receptor (human); assay: as above
T2 construct: the construct is not described; also called HIRA; human insulin receptor isoform A

[5] = biological target: T1, Insulin-like Growth Factor receptor; assay: as above

Row | Binder | affinity relative to unmodified human insulin [1] [times] | Kd [2] [nM] | Relative Affinity (to IGF-1) [2] | Kd [3] [nM] | Relative Affinity (to human insulin) [3] | Kd [4] [nM] | Relative Affinity (to human insulin) [4] | Kd [5] [nM] | Relative Affinity (to human insulin) [5]
1 | B1 | 2 to 3 | 3.14 | 0.015 |  |  |  |  |  | 
2 | B2 |  |  |  | 0.01 | 4.7 | 0.008 | 4.25 | 2.7 | 3.54
